Results from publication PMC12136788.
The list shows a part of the results.

B1: chr14:28285125:28285126:+_ENSMUSG00000040651_ENSMUST00000022450|mus_mus|motif|central (ssRNA)
RNA: GGGAGUUCUACAGUCCGACGAUCCUCAGAAAGGCGAUUCAUCUUCUCUUGUGCUGAAAAGAUAGGUGUGGAAAUUGCACGGACAUAUGAAACAUUCUUCUCCUUCAAAAUCUCUUCUACCUUCCUAGAGAAAAGAUGGAACUCCAACAGAGGAUUGAGCAUCA
B2: chr5:37680062:37680063:+_ENSMUSG00000029121_ENSMUST00000031004|mus_hu|mus_mus_mus_hu_False|1_78 (ssRNA)
RNA: GGGAGUUCUACAGUCCGACGAUCUUUGGGUGUAGCUGGUACCUCGUACACAGGACCAUCGUACAUGCCCCUGGAAACCCCUUGCAAUCCAAAAACCUUAUUCCUGAUUUUGACGCGCUGGUACAGGUGCUCCGGGAAUGGCUUCAACAGAGGAUUGAGCAUCA
B3: chr19:53703180:53703181:+_ENSMUSG00000024974_ENSMUST00000025930|mus_hu|FALSE|FALSE (ssRNA)
RNA: GGGAGUUCUACAGUCCGACGAUCAUUUUGAACAUGCUGGUUUAUUCCUUUUCGACGGAAGUGGUCUAGCACUUUGUUUAUGCUGUCUAUUCCAUUUAAAAUGGCCUUUCCUGUUGCUGCUCUAAGAAGUUGUUGCUUCUUUUCCAACAGAGGAUUGAGCAUCA
B4: chr2:232320318:232320319:-_ENSG00000115053_ENST00000322723|hu_hu|hu_hu_hu_mus_True|18_58 (ssRNA)
RNA: GGGAGUUCUACAGUCCGACGAUCACUAUUAAAGUCUACAAAACCAAACCCUUUGGAAGAACCAGUUUCCCGAUCAGUAACUAUCCUUGCACGAACAGAGCCCUCAAAUGAUUCUUUUAAUGUCUCUUCAGUGGUAUCCUCAGACAACAGAGGAUUGAGCAUCA
B5: 39847440_39850530_3879_CDS_ENSG00000121892_ENST00000303538|human|control|control (ssRNA)
RNA: GGGAGUUCUACAGUCCGACGAUCUCCUGUUAACAGAAGUACUCUUGUCUCUUCUGAAAUAUAACUCUUAUCGUUACAGAAGUCCUUUUCAGGUUGUGUAAAAAAUUUCAUUGGGAGGACUGGGUCCUUUGGUGAAUCUGCAUUCAACAGAGGAUUGAGCAUCA
B6: chr9:95013113:95013114:-_ENSG00000196305_ENST00000443024|hu_hu|hu_hu_hu_mus_False|1_98 (ssRNA)
RNA: GGGAGUUCUACAGUCCGACGAUCCUCAGUCAGAAAGGGUGUGUAGGGGGCCAUCAGUCUGCACAGAGAAAGCAGGACACUGAACAGUGUCUCCAGAGCCAUGACACAGUCUUCCACCCCACUCUCACCCUUUAACCUUCUGCGCAACAGAGGAUUGAGCAUCA
B7: chr1:95368729:95368730:-_ENSG00000117519_ENST00000538964|hu_hu|FALSE|FALSE (ssRNA)
RNA: GGGAGUUCUACAGUCCGACGAUCCAACUGAGGCCAGUUCAGUGAGGACUCGUUGACCUUCUUCACUGAGCCUGGCUGUAGCUUGUUUAUAAGUUCGCAGAGGAUGAUGCCAUCCUUUAAGCCCAGCUGGAAGUUGGGGCCAAUCAACAGAGGAUUGAGCAUCA
B8: chr10:33190432:33190433:-_ENSG00000150093_ENST00000302278|hu_mus|hu_hu_hu_mus_True|1_58 (ssRNA)
RNA: GGGAGUUCUACAGUCCGACGAUCUACAUUUUCCAAACCUGCAUGUGAAUAAAACCCUGGCCACAGAGCCCCAAAACUACCUAACUGUGACUAAGAUGCUGCUGCUGUGAGCUUGGUGUUGCAAAAUCCGCCUGAGUCAGUACUCAACAGAGGAUUGAGCAUCA
B9: chr1:163115689:163115690:-_ENSG00000143248_ENST00000313961|hu_hu|motif|central (ssRNA)
RNA: GGGAGUUCUACAGUCCGACGAUCCAAUGUAAUCUUCUACUUAACAUUUCAGAAUUUUAUUAAUCCUUUAAAAAUCACCCGGUUUCUUUUGAGUUAAUAUCCUCAUCUCGAUUACCCUCAUACAUGGCUUAGUUUGAUUCUGUUCAACAGAGGAUUGAGCAUCA
B10: chr4:47484081:47484082:-_ENSMUSG00000039740_ENSMUST00000044148|mus_mus|motif|central (ssRNA)
RNA: GGGAGUUCUACAGUCCGACGAUCCCAUUACGCUCUGAAGUCAAAUCAAUUGACUGUGACAAUGGUAAGACCUACACGGCGGAAGCCAAUUAAGGCACUGGAUGAUCAAACCUUUAUAUAUAAAGGAACAAUAAUCCAGGAAAACAACAGAGGAUUGAGCAUCA
B11: chr1:58468927:58468928:-_ENSMUSG00000026034_ENSMUST00000148330|mus_mus|mus_mus_mus_hu_False|28_108 (ssRNA)
RNA: GGGAGUUCUACAGUCCGACGAUCAAUCUAUAAUUACGAUGUUCAUUACCUUAGCUAUGUACUUAAUGAACCAAAUUACCCAAACAAAAUAAACAUGGCAAUAUAAAAAGCUAUACAAUUUACAAAGCUGUACAAAAUAACUUACAACAGAGGAUUGAGCAUCA
B12: chr9:100410314:100410315:+_ENSG00000136937_ENST00000375147|hu_hu|FALSE|FALSE (ssRNA)
RNA: GGGAGUUCUACAGUCCGACGAUCGUGCCGUUCCUGCCAGCGAUCCUUUUUCAAUUUCUGAAUCUGGGCCCACAGGCAAUCUAAAUACUCUUCUUGUGGAUGUGGUUUAUCAGCAGUCCAUACCUGUAACAUGGGUACAUGAGUCAACAGAGGAUUGAGCAUCA
B13: chr14:103803487:103803488:+_ENSG00000100664_ENST00000558506|hu_mus|hu_hu_hu_mus_True|78_88 (ssRNA)
RNA: GGGAGUUCUACAGUCCGACGAUCGAGUUUAUGAUGUGUGUCAAGCAUGCCUCGAUAGCCACAGGCUUUACAAGAAUUACCUAUUGUUUGCUUCUUUGGAUUGACAUGCAGAUCUGUUUCAGGAUUCUCACACUCAGGACAGAGCAACAGAGGAUUGAGCAUCA
B14: chr16:5026692:5026693:-_ENSMUSG00000022536_ENSMUST00000115844|mus_mus|motif|central (ssRNA)
RNA: GGGAGUUCUACAGUCCGACGAUCACCCAUUUUUAGCAAGUUGGAGACGAUGCCACUUCCCAUUAAGCCAAGGCCCAAAAAUCCGGUCUUUUUGUCUGUGGGUGUAAUGCUGCCAUUCACAGCUGUGCUGUCUGCUGCCUGGAUCAACAGAGGAUUGAGCAUCA
B15: chr8:95500983:95500984:-_ENSG00000164944_ENST00000437199|hu_hu|hu_hu_hu_mus_True|28_48 (ssRNA)
RNA: GGGAGUUCUACAGUCCGACGAUCAGAACACAUCUAUCGAGUAAAGGACCGUACAUGACGGCCUCUACCACUGCCUCCACUAACAAAACUUUCCUCUGAGCCUCCACCUGCCGCUAUUGUACUAGCCCAGGACGGUCCCAGGCCCAACAGAGGAUUGAGCAUCA
B16: chr3:37053522:37053523:+_ENSG00000076242_ENST00000455445|hu_mus|FALSE|FALSE (ssRNA)
RNA: GGGAGUUCUACAGUCCGACGAUCAAAGAUGGAGCGAAUGUUGUCCACGGUUGUGGCAUUGGGCAGUGUUCUGACAUCAGAUACUGUCUCACCUUGUUUUUUAACUGAGAAACUAAUGCCUGAAUUGUGUAUUGAAUACCUGCCCAACAGAGGAUUGAGCAUCA
B17: chr7:90019433:90019434:+_ENSMUSG00000057706_ENSMUST00000082237|mus_hu|mus_mus_mus_hu_True|88_98 (ssRNA)
RNA: GGGAGUUCUACAGUCCGACGAUCAAAUAAUACAGUGUCUUUGCCAUAAGGCCAUACCUAAAAUAAAAAGAUUUAACCCAGCUACAAAAAAGUUCACUGAACUUAAAUUAAAAUACUUGUAAACAUCUUUGCAAUAUGAAAUAUCAACAGAGGAUUGAGCAUCA
B18: chr1:154525626:154525627:-_ENSG00000160714_ENST00000292211|hu_mus|motif|central (ssRNA)
RNA: GGGAGUUCUACAGUCCGACGAUCAUCAUCUUCAGACUUCUUGCCCUCGGCUGGCUCUUCCUCUUUCAUUUCAUAGUGAUCGGGGUCUUCUGUAUCCUCAGGCAUCUCUUCAUCUUCAUCUUCUGAAGACACUUCUUCCUGCGUCAACAGAGGAUUGAGCAUCA
B19: chr6:134305517:134305518:+_ENSG00000028839_ENST00000367871|hu_mus|motif|central (ssRNA)
RNA: GGGAGUUCUACAGUCCGACGAUCGUUACACACUGCCAAAACAUUCACCACCUUAAAAUCUGUGAAGAUGACCUGAAAACCGGGUUUCUGCAGACUACGGGCUAAACGUCUGGCACCAAAUUUAGCUUCUUCUUCACUUGUUGCCAACAGAGGAUUGAGCAUCA
B20: 93746689_93746809_331_CDS_ENSMUSG00000054079_ENSMUST00000066888|mouse|control|control (ssRNA)
RNA: GGGAGUUCUACAGUCCGACGAUCCUCGACAUCGCCGAAGACGAGCUGCUCCAGGCAACGCUCGGCGGCCGGCUUAUCGUCCUCUAGCGUCAGGCGGUUCCGCUGCCGGAGCCGGCUCUCCUCCUCCUCUGCCGCCGCCGCCGCCAACAGAGGAUUGAGCAUCA
B21: chr14:92597410:92597411:+_ENSG00000165934_ENST00000298875|hu_hu|motif|central (ssRNA)
RNA: GGGAGUUCUACAGUCCGACGAUCGGAAUCAAUAAUAUCCAUAGAAAAGUGCUCAUCCCAGCCACAGUCCAAUAAAAAUCGGAACUCAUCAACUUGGAGAAGAUAGCAAAGGGCAGAUUCUUCUUGGACCCCAGAAAGGGUAGUCAACAGAGGAUUGAGCAUCA
B22: chr1:95392461:95392462:-_ENSG00000117519_ENST00000538964|hu_mus|FALSE|FALSE (ssRNA)
RNA: GGGAGUUCUACAGUCCGACGAUCUUCGGCGGAGAGCCCGUAGGAAGGGCCCUUGUUGAAGUGGGUCAUGGCUGUUUGGACGACUGGAAGAGUUCUAGCGGUCAGUCACCCUCGGUGUCCCUGCUCUUAGCCCCAGCGGCGGCCCAACAGAGGAUUGAGCAUCA

molecular target: T1, UNK ZnF1-3 (human, UniProt Q9C0B0 31-174); assay: nsRBNS (natural sequence RNA bind-n-seq); RBNS binding buffer (assumed for nsRBNS): 25 mM Tris pH 7.5, 150 mM KCl, 3 mM MgCl2, 0.01% Triton X-100, 500 ug/ml BSA, 20 U/ml SUPERase-In, 4 C; UNK is unkempt and MSI1 is Musashi-1; names of the RNAs are library labels; protein concentration not given here; high values mean tight binding
T1 sequence: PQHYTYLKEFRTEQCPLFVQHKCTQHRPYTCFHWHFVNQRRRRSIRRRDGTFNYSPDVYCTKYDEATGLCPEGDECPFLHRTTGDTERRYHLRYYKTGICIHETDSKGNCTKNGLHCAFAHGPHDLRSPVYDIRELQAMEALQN

Q: Which binding signal does the source give for B1 here?
A: The binding signal was 1.03 enrichment R.

Q: For B2, which binding signal is on record?
A: Its binding signal is 0.577 enrichment R.

Q: How did the binding signal turn out when B3 was run?
A: Its binding signal is 0.227 enrichment R.

Q: B4 was tested. Which binding signal did it give?
A: Its binding signal is 1.34 enrichment R.

Q: B5 was tested. Which binding signal did it give?
A: The binding signal was 0.633 enrichment R.

Q: For B6, which binding signal is on record?
A: Its binding signal is 0.778 enrichment R.

Q: Which binding signal does the source give for B7 here?
A: The binding signal was 0.784 enrichment R.

Q: How did the binding signal turn out when B8 was run?
A: The binding signal was 1.09 enrichment R.

Q: For B9, which binding signal is on record?
A: The binding signal was 0.735 enrichment R.

Q: B10 was tested. Which binding signal did it give?
A: Its binding signal is 0.692 enrichment R.

Q: B11 was tested. Which binding signal did it give?
A: Its binding signal is 0.572 enrichment R.

Q: For B12, which binding signal is on record?
A: The binding signal was 0.812 enrichment R.

Q: With B13 as the binder, how does the binding signal read?
A: The binding signal was 1.22 enrichment R.

Q: B14 was tested. Which binding signal did it give?
A: Its binding signal is 0.923 enrichment R.

Q: For B15, which binding signal is on record?
A: Its binding signal is 1.01 enrichment R.

Q: B16 was tested. Which binding signal did it give?
A: Its binding signal is 0.544 enrichment R.

Q: Which binding signal does the source give for B17 here?
A: The binding signal was 1.41 enrichment R.

Q: With B18 as the binder, how does the binding signal read?
A: The binding signal was 0.42 enrichment R.

Q: Which binding signal does the source give for B19 here?
A: The binding signal was 0.817 enrichment R.

Q: For B20, which binding signal is on record?
A: Its binding signal is 0.403 enrichment R.

Q: How did the binding signal turn out when B21 was run?
A: The binding signal was 1.46 enrichment R.

Q: How did the binding signal turn out when B22 was run?
A: Its binding signal is 0.836 enrichment R.
